According to the RNAGym collection of RNA variant scans (doi:10.1093/nar/gkz1192):
Read counts are not given, so values of variants with three or more changes are uncertain.

B1: CPEB3 Ribozyme (parent)
chain: UAACAGGGGGCCACAGCAGAAGCGUUCACGUCGCAGCCCCUGUCAGAUUCUGGUGAAUCUGCGAAUUCUGCUGUAUAUCUC

Variants of: B1
Experiment: self-cleavage, relative activity (ratio to wild type); higher = more cleavage; in vitro, sequencing
How it was run: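 Relative activity was defined as the cleaved/total read fraction for a variant divided by the same fraction for the unmutated ribozyme. CPEB3 self-cleaving ribozyme libraries were made by rounds of error-prone PCR, barcoded, and transcribed in vitro with T7 RNA polymerase for 5 hours at 37°C, and cleavage ran through transcription plus a 15 min DNase I step before EDTA. Illumina sequencing of template-switched reverse transcripts gave the reads, and DNA sequencing mapped the barcodes. Averages come from three batches, using variants with at least 5 reads.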

Variant	self-cleavage
UAACAGGGGGCCACAGCAGAAGCGUUCGCGUCGCAACCCCUGUCAGAUUCUGGUGAAUCUGCGAAUUCCGCCGUAUAUCUC	0.13
UAACAGGGGGCCACAGCAGAAGCGUUCGCGUCGCAUCCCCUGUCAGAUUCUGGUGAAUCUGCGAAUUCAGCUGUAUAUCUC	0.12
UAACAGGGGGCCACAGCAGAAGCGUUCGCGUCGCAGCCCCUAUCAGAUCCUGGUGAAUCUGCGAAUUCUGCUGUAUAUCUC	0.07
UAACAGGGGGCCACAGCAGAAGCGUUCGCGUCGCAGCCCCUUUCAGACUCUGGUGAAUCUGCGAACUCCGCUGUAUAUCUU	0.05
UAACAGGGGGCCACAGCAGAAGCGUUCGCGUCGCAGCCCCUGUCAACUUCUGGUGAAUCUGCGAAUUCUGCUGUAUAUCUC	0.09
UAACAGGGGGCCACAGCAGAAGCGUUCGCGUCGCAGCCCCUGUCAUAUUCUGGCGAAUCUGCGAAUCCUGCAGUAUAUCUC	0.08
UAACAGGGGGCCACAGCAGAAGCGUUCGCGUCGCAGCCCCUGUCAGAUUCUAGUGAAUCUGCGAAUUCUGCUGUGUAUCCC	0.29
UAACAGGGGGCCACAGCAGAAGCGUUCGCGUCGCAGCCCCUGUCAGAUUCUGAUGAAUCUGCGAAUCCUGCUGCAUAUCUC	0.14
UAACAGGGGGCCACAGCAGAAGCGUUCGCGUCGCAGCCCCUGUCAGAUUCUGCUGAAUCCGCGGAUUCUGCUGUAUAUCUC	0.13
UAACAGGGGGCCACAGCAGAAGCGUUCGCGACGCUGCCCCCGUCAGAUUCUGGUGAAUCUGCGAAUUCUGCUGUAUAUCUC	0.1
UAACAGGGGGCCACAGCAGAAGCGUUCGCGACGCAGCCCCUGUCAGUUUCUGGUGAAUCUGCGAAUACUGCUGUAUAUCUC	0.16
UAACAGGGGGCCACAGCAGAAGCGUUCGCGACGCAGCCCCUGUCAGAUUCUGGUGGAUCUGCGAAUUCUGCUGUAUAUCCC	0.39
UAACAGGGGGCCACAGCAGAAGCGUUCGCGACGCAGCCCCUGUCACAUUCCGGUGAAUCUGCGAAUUCUGCUGUAUAUCUC	0.12
UAACAGGGGGCCACAGCAGAAGCGUUCGCGACGCAGCCCCUGGCAGAUUCUGGUGAAUCUGCGAAUUCUGCCGUAUAUCUC	0.38
UAACAGGGGGCCACAGCAGAAGCGUUCGCGACGCAGCCCCUGUCAGACUCUGGUGAAUCUGCGAAUUCUGCUGUAUAUCUC	0.07
UAACAGGGGGCCACAGCAGAAGCGUUCGCGACGCAGCCCCUGUCAGAUUCCGAUGAAUCUGCGAAUUCUGCUGUAUAUCUC	0.12
UAACAGGGGGCCACAGCAGAAGCGUUCGCGACGCAGCCCCUGUCAGAUUCUGGUGAAUCUGCGAAUUCGGCUGCAUAUCUC	0.13
UAACAGGGGGCCACAGCAGAAGCGUUCGCGCCGCAGCCCCUGUCAGGUCCUGGUGAAUCUGCGAAUUCUGCAGUAUAUCUC	0.14
UAACAGGGGGCCACAGCAGAAGCGUUCGCGCCGGAGCCUCUGUCAGGUUCUGGUGGGUCUGCGAAUUCUGCUGUAUAUCUC	0.15
UAACAGGGGGCCACAGCAGAAGCGUUCGCGCCGCAGCCCCUGUAAGAUUCUGGUGAAUCUGCGAAUUCUGCUGUAUAUCUC	0.2
UAACAGGGGGCCACAGCAGAAGCGUUCGCGCCGCAGCCCCUGUCAGAUUCUGGUGAAUUUGCGAAUUCUGCUGUAUAUCUC	0.32
UAACAGGGGGCCACAGCAGAAGCGUUCGCGCCGCAGCCCCUAUCAGAUUCUGGUGAAUCUGCGAAUUCUGCUGUAUAUCUC	0.23
UAACAGGGGGCCACAGCAGAAGCGUUCGCGCCGCAGCCCCAGUCGGAUCCUGGUGAAUCUGCGAACUCUGCUGUAUUUCUC	0.04

Variant	self-cleavage
UAACAGGGGGCCACAGCAGAAGCGUUCGCGCCGCAGCCCCAGUCAGAUUCUGGUGAUUCUGCGAAUUCUGCUGUAUAUCUC	0.13
UAACAGGGGGCCACAGCAGAAGCGUUCGCGCCGCAGCCCCCGUCAGAUUCUGGAGAACCUGCGAAUUCGGCAGUAUAUCUC	0.07
UAACAGGGGGCCACAGCAGAAGCGUUCGCGCCGCAGCCCCUGUCAGAUCCUGGUGAAUCUGCGAAUUCUGCUGUAUAUCUC	0.17
UAACAGGGGGCCACAGCAGAAGCGUUCGCGCCGCAGCCCCUGUCAGAUUCCGGUGAAUCUGCGAAUUCUGCUGUAUAUCUC	0.15
UAACAGGGGGCCACAGCAGAAGCGUUCGCGCCGCAGCCCCUGUCAGAUUCUGGAGAAUCUGCGAAUUCUGCUGUAUAUCUC	0.54
UAACAGGGGGCCACAGCAGAAGCGUUCGCGCCGCAGCCCCUGUCAGAUUCUGGUGAACCUGCGAAUUCCGCUGUAUACCUC	0.14
UAACAGGGGGCCACAGCAGAAGCGUUCGCGCCGCAGCCCCUGUCAGAUUCUGGUGAACCUGCGAAUUCUGCUGUAUAUCCC	0.26
UAACAGGGGGCCACAGCAGAAGCGUUCGCGCCGCAGCCCCUGUCAGAUUCUGGUGAAUCUGCGAAUUCAGCUGUAUAUCGC	0.17
UAACAGGGGGCCACAGCAGAAGCGUUCGCGCCGCAGCCCCUGUCAGAUUCUGGUGAAUCUGCGAAUUCUGCUGUAUACCUC	0.21
UAACAGGGGGCCACAGCAGAAGCGUUCGCGGCGCAGCCCCUGUCAGUUUCUGGUGAAUCUGCGAAUUCUGCUGUAUACCUC	0.14
UAACAGGGGGCCACAGCAGAAGCGUUCGCGGCGCAGCCCCUGUCAGAUUUUGGUGAAUCUGCGAAUUCUGCUGUAUAUCUC	0.47
UAACAGGGGGCCACAGCAGAAGCGUUCGCGGCGCAGCCCCUGUCAGAUUCUGGUGAAUCUGCAAAUUCUGCUGUAUAUCUC	0.18
UAACAGGGGGCCACAGCAGAAGCGUUCGCGGCGCAGCCCCUGCCAGAUUCUGGUGAAUCUGCGGAUUCUGCUGUAUAUCUC	0.11
UAACAGGGGGCCACAGCAGAAGCGUUCGCGUCGCAGCCCCAGUCAGGUUCUGGUGAAUCUGCGAAUUCUGCCGUAUAUCUC	0.05
UAACAGGGGGCCACAGCAGAAGCGUUCGCGUCGCAGCCCCAGUCAGAUUCUGGUGAAUCUGCGAAUUCUGCUGUAUGUCCC	0.17
UAACAGGGGGCCACAGCAGAAGCGUUCGCGUCGCAGCCCCACUCAGAUUCUGGUGAAUCUGCGAAUUCAGCUGUAUAUCAC	0.2
UAACAGGGGGCCACAGCAGAAGCGUUCGCGUCGCAGCCCCAGUCAGAAUCUGGUGAGUCCGCGAAUUCUGCUGUAUAUCUC	0.12
UAACAGGGGGCCACAGCAGAAGCGUUCGCGUCGCAGCCCCAGUCAGAUCCUGGCGAAUCUGCGAAUUCAGCUGUAUAUCUC	0.05
UAACAGGGGGCCACAGCAGAAGCGUUCGCGUCGCAGCCCCAGUCAGAUUCUGGUGAAUCUGCGAAUUCUGCCGUAUAUCUC	0.26
UAACAGGGGGCCACAGCAGAAGCGUUCGCGUCGCAGCCCCAGUCAGAUUCUGGUGAAUCUGCGAAUUCUGCUGUACAUCUC	0.13
UAACAGGGGGCCACAGCAGAAGCGUUCGCGUCGCAGCCCCAGUCAGAUUCUGGUGAAUCUGCGAAUUCUGCUGUAUACCCC	0.14
UAACAGGGGGCCACAGCAGAAGCGUUCGCGUCGCAGCCCCAGUCAGAUUCUGGUGAAUCUGCGAAUUCUGCUGUAUAUCAC	0.38
UAACAGGGGGCCACAGCAGAAGCGUUCGCGUCGCAGCCCCCGUCAGUUUCUGGUGAAUCUGCGAAUUCUGCUGUAUAUCUC	0.23

Variant	self-cleavage
UAACAGGGGGCCACAGCAGAAGCGUUCGCGUCGCAGCCCCCGUCAGAUUCUGGUGGAUCUGCGAAUUCUGCUGUAUAUCUC	0.29
UAACAGGGGGCCACAGCAGAAGCGUUCGCGUCGCAGCCCCCGUCAGAUUCUGGUGGAUCUGCGAGCUCUGCUGUAUACCUC	0.05
UAACAGGGGGCCACAGCAGAAGCGUUCGCGUCGCAGCCCCCGUCAGAUUCUGGUGUGUCUGCGAAUUCUGCUGUAUAUCCC	0.17
UAACAGGGGGCCACAGCAGAAGCGUUCGCGUCGCAGCCCCCGUCAGAUUCUGGUGAGUCUGCGAAUUCUGCUGUAUAUCUC	0.55
UAACAGGGGGCCACAGCAGAAGCGUUCGCGUCGCAGCCCCCGUCAGAUUCUGGUGAGUCUGCGAAUUCUGCUGUACAUCUC	0.37
UAACAGGGGGCCACAGCAGAAGCGUUCGCGUCGCAGCCCCCGUCAGAUUCUGGUGAAUCUGCGGAUUCUGCUGUAUAUCUC	0.46
UAACAGGGGGCCACAGCAGAAGCGUUCGCGUCGCAGCCCCCGUCAGAUUCUGGUGAAUCUGCGAGUCCUGCUGUAUAUCUC	0.13
UAACAGGGGGCCACAGCAGAAGCGUUCGCGUCGCAGCCCCCGUCAGAUUCUAGUGAAUCCGCGAAUUCUGCUGUAUAUCCC	0.16
UAACAGGGGGCCACAGCAGAAGCGUUCGCGUCGCAGCCCCCGUCAGAUUCUGGUGAAUCUACGAAUUCUGCUGUAUAUCUC	0.25
UAACAGGGGGCCACAGCAGAAGCGUUCGCGUCGCAGCCCCCGACAGAUUCUGGUGAAUCUGCGAAUUCUGCUGUAUAUCCC	0.37
UAACAGGGGGCCACAGCAGAAGCGUUCGCGUCGCAGCCCCCGCCAGAUUCUGGUGAAUCUGCGAAUUCUGCUGUAUAUCUC	0.48
UAACAGGGGGCCACAGCAGAAGCGUUCGCGUCGCAGCCCCCGCCAGAUUCUGGUGAAUCUGCGAAUUCUGCUGUAUACCUC	0.58
UAACAGGGGGCCACAGCAGAAGCGUUCGCGUCGCAGCCCCCGUCAGACUCUGGUGAGUCUGCUAAUUCUGCUGUUUAUCUC	0.92
UAACAGGGGGCCACAGCAGAAGCGUUCGCGUCGCAGCCCCCGUCAGAUCCUGGUGAACCUGCGAGUUCUGCUGUAUAUCUC	0.18
UAACAGGGGGCCACAGCAGAAGCGUUCGCGUCGCAGCCCCCGUCAGAUCCUGGUGAAUCCGCGAAUUCUGCUGUAUAUCUC	0.16
UAACAGGGGGCCACAGCAGAAGCGUUCGCGUCGCAGCCCCCGUCAGAUUCCGGAGGAUCUGCGAAUUCUGCUGUAUAUCUC	0.32
UAACAGGGGGCCACAGCAGAAGCGUUCGCGUCGCAGCCCCCGUCAGAUUCUGGCGAAUCUGCGAAUUCUGCUGUAUAUCUC	0.54
UAACAGGGGGCCACAGCAGAAGCGUUCGCGUCGCAGCCCCCGUCAGAUUCUGGCGAAUCCGCGAAUCCUGCUGUAUAUCUC	0.19
UAACAGGGGGCCACAGCAGAAGCGUUCGCGUCGCAGCCCCCGUCAGAUUCUGGUGAACCUGCGAAUUCUGCAGUAUACCUC	0.17
UAACAGGGGGCCACAGCAGAAGCGUUCGCGUCGCAGCCCCCGUCAGAUUCUGGUGAAUCCGCGAAUUCUGCUGUAUAUCUC	0.15
UAACAGGGGGCCACAGCAGAAGCGUUCGCGUCGCAGCCCCCGUCAGAUUCUGGUGAAUCCGCGAACUCUGCUGUAUACCUC	0.1
UAACAGGGGGCCACAGCAGAAGCGUUCGCGUCGCAGCCCCCGUCAGAUUCUGGUGAAUCUGCGAAUUCUGCAGUAUAUCUC	0.3
